How the values were obtained:
Assay type in all cases: in vivo
[1] = system: Botrytis cinerea; assay: Test Example B: Gray mold on tomato; conditions: for Test B (control value class, gray mold on tomato): in vivo
Text: [Test Example B] Gray Mold on Tomato
Seeds of a test plant (tomato variety: Oogata Fukuju) were planted followed by cultivating until three to five first leaves (true leaves) appeared.

[2] = system: Alternaia brassicicola; assay: Test Example C: Alternaria sooty spot on cabbage; conditions: for Test C (control value class, Alternaria sooty spot on cabbage): in vivo
Text: [Test Example C] Alternaria Sooty Spot on Cabbage
Seeds of a test plant (cabbage variety: Shikidori) were planted followed by cultivating until the cotyledons extended.

[3] = system: Blumeria graminis f sp. hordei; assay: Test Example D: Powdery mildew on barley; conditions: for Test D (control value class, powdery mildew on barley): in vivo
Text: [Test Example D] Powdery Mildew on Barley
After the sprayed dilutions were dried, conidia of Blumeria graminis f sp. hordei were inoculated to the plants by shaking off.

[4] = system: Puccinia recondita; assay: Test Example E: Brown rust on wheat; conditions: for Test E (control value class, brown rust on wheat): in vivo
Text: [Test Example E] Brown Rust on Wheat

[5] = system: Plasmopara viticola; assay: Test Example G: Downy mildew on vine; conditions: for Test G (control value class, downy mildew on vine): 250 ppm, sprayed 2.5 ml/pot before inoculation; for Test G (control value class): 250 ppm spray
Text: [Test Example G] Downy Mildew on Vine
Seeds of a test plant (grape variety: Neomuscat) were planted followed by cultivating until three to four first leaves appeared. […] After the sprayed dilutions were dried, a zoosporangia suspension (1-2×10^4 zoosporangia/ml) of Plasmopara viticola was inoculated to the plants by spraying.

[6] = evaluated 7-10 days after inoculation
[7] = Gray mold on tomato, control value=100{1-(n/3)}
[8] = Alternaria sooty spot on cabbage, control value=100{1-(n/3)}
[9] = Powdery mildew on barley, control value=100{1-(n/3)}
[10] = Brown rust on wheat, control value=100{1-(n/3)}
[11] = Downy mildew on vine, 2.5 ml/pot, evaluated 7-10 days after inoculation

In the case of `CCn1c(-c2c(F)cc(OC)cc2F)c(-c2ccc(OC)cc2Cl)cc(Cl)c1=O` [Compound 748], the “Test B (control value class, gray mold on tomato)” value [1] was “L (L shows 50% or less of control values)”, the “Test C (control value class, Alternaria sooty spot on cabbage)” value [2] was “H (H shows more than 50% of control values)” and the “Test D (control value class, powdery mildew on barley)” value [3] was “L (L shows 50% or less of control values)”. For the same molecule, the “Test E (control value class, brown rust on wheat)” value [4] was “H (H shows more than 50% of control values)” and the “Test G (control value class, downy mildew on vine)” value [5, 6] was “L (L shows 50% or less of control values)”.

In the case of `Cc1cc(-c2cc(F)ccc2Cl)c(-c2c(F)cc(F)cc2F)n(C)c1=O` [Compound 758], the “Test B (control value class)” value [1, 7] was “H (H shows more than 50% of control values)”, the “Test C (control value class)” value [2, 8] was “H (H shows more than 50% of control values)” and the “Test D (control value class)” value [3, 9] was “H (H shows more than 50% of control values)”. The “Test E (control value class)” value [4, 10] was “H (H shows more than 50% of control values)” and the “Test G (control value class)” value [5, 11] was “H (H shows more than 50% of control values)”.

In the case of `COc1cc(F)c(-c2c(-c3cc(F)cc(F)c3Cl)cc(Cl)c(=O)n2C)c(F)c1` [Compound 677], the “Test B (control value class, gray mold on tomato)” value [1] was “H (H shows more than 50% of control values)”, the “Test C (control value class, Alternaria sooty spot on cabbage)” value [2] was “H (H shows more than 50% of control values)” and the “Test D (control value class, powdery mildew on barley)” value [3] was “H (H shows more than 50% of control values)”. The “Test E (control value class, brown rust on wheat)” value [4] was “H (H shows more than 50% of control values)” and the “Test G (control value class, downy mildew on vine)” value [5, 6] was “H (H shows more than 50% of control values)”.

In the case of `COc1cc(F)c(-c2c(-c3cc(F)cc(F)c3Cl)ccc(=O)n2C)c(F)c1` [Compound 676], the “Test B (control value class, gray mold on tomato)” value [1] was “H (H shows more than 50% of control values)”, the “Test C (control value class, Alternaria sooty spot on cabbage)” value [2] was “H (H shows more than 50% of control values)” and the “Test D (control value class, powdery mildew on barley)” value [3] was “H (H shows more than 50% of control values)”. The “Test E (control value class, brown rust on wheat)” value [4] was “H (H shows more than 50% of control values)” and the “Test G (control value class, downy mildew on vine)” value [5, 6] was “H (H shows more than 50% of control values)”.

For `CCn1c(-c2c(F)cccc2Cl)c(-c2c(Cl)c(OC)cc(OC)c2Cl)cc(Cl)c1=O` [Compound 167], the “Test B control value” ([1]; Gray mold on tomato) was “L (L shows 50% or less of control values)”, the “Test C control value” ([2]; Alternaria sooty spot on cabbage) was “L (L shows 50% or less of control values)” and the “Test D control value” ([3]; Powdery mildew on barley) was “L (L shows 50% or less of control values)”. For the same molecule, the “Test E control value” ([4]; Brown rust on wheat) was “L (L shows 50% or less of control values)” and the “Test G control value” ([5]; Downy mildew on vine, 250 ppm sprayed before inoculation, 7-10 days after inoculation) was “L (L shows 50% or less of control values)”.

For `CCn1c(-c2c(F)cc(OC)cc2F)c(-c2cc(OC)cc(F)c2Cl)ccc1=O` [Compound 623], the “Test B (control value class, gray mold on tomato)” value [1] was “H (H shows more than 50% of control values)”, the “Test C (control value class, Alternaria sooty spot on cabbage)” value [2] was “H (H shows more than 50% of control values)” and the “Test D (control value class, powdery mildew on barley)” value [3] was “H (H shows more than 50% of control values)”. The “Test E (control value class, brown rust on wheat)” value [4] was “H (H shows more than 50% of control values)” and the “Test G (control value class, downy mildew on vine)” value [5, 6] was “L (L shows 50% or less of control values)”.

With `CCn1c(-c2c(F)cccc2F)c(-c2cc(OC)ccc2Cl)cc(F)c1=O` [Compound 533] the “Test B (control value class)” value ([1]; gray mold on tomato, Botrytis cinerea, 250 ppm spray) was “H (H shows more than 50% of control values)”, the “Test C (control value class)” value ([2]; Alternaria sooty spot on cabbage, 250 ppm spray) was “H (H shows more than 50% of control values)” and the “Test D (control value class)” value ([3]; powdery mildew on barley, 250 ppm spray) was “H (H shows more than 50% of control values)”. For the same molecule, the “Test E (control value class)” value ([4]; brown rust on wheat, Puccinia recondita, 250 ppm spray) was “H (H shows more than 50% of control values)” and the “Test G (control value class)” value ([5]; downy mildew on vine, Plasmopara viticola, 7-10 days after inoculation) was “L (L shows 50% or less of control values)”.

For `CCOc1cc(F)c(-c2c(-c3ccccc3F)cc(Cl)c(=O)n2C)c(F)c1` [Compound 598], the “Test B (control value class, gray mold on tomato)” value [1] was “H (H shows more than 50% of control values)”, the “Test C (control value class, Alternaria sooty spot on cabbage)” value [2] was “H (H shows more than 50% of control values)” and the “Test D (control value class, powdery mildew on barley)” value [3] was “H (H shows more than 50% of control values)”. For the same molecule, the “Test E (control value class, brown rust on wheat)” value [4] was “H (H shows more than 50% of control values)” and the “Test G (control value class, downy mildew on vine)” value [5, 6] was “H (H shows more than 50% of control values)”.

With `COc1cc(F)c(-c2c(-c3cc(F)cc(F)c3)ccc(=O)n2C)c(F)c1` [Compound 803] the “Test B (control value class)” value [1, 7] was “H (H shows more than 50% of control values)”, the “Test C (control value class)” value [2, 8] was “H (H shows more than 50% of control values)” and the “Test D (control value class)” value [3, 9] was “H (H shows more than 50% of control values)”. The “Test E (control value class)” value [4, 10] was “H (H shows more than 50% of control values)” and the “Test G (control value class)” value [5, 11] was “H (H shows more than 50% of control values)”.

— US10299477B2 (priority 2015, dated 2019)
